# Assay results: PubChem BioAssay (Tox21)
# Values joined by “and” are separate entries in the source; they are usually repeats but may differ in a detail not shown here. Equal values may be shown once. The inconclusive results got no clear call from the source; some entries with a clear call stand among them for comparison. A potency beside an inconclusive call is a rough fit, not a confirmed value. Where a structure was tested more than once in an assay, its records may differ in their call. Active and inactive are the calls of the source. Unless noted, calls follow the shape of the dose curve; as a rule, active = well fitted curve in the direction sought with a large enough effect in the repeat runs; inconclusive = weak or mixed curves; inactive = no such curve, though single readings can be large; an effect the other way counts as inactive or inconclusive.
# Assays:
# [1] = target: Estrogen receptor (Homo sapiens) (UniProt P03372); assay: qHTS assay to identify small molecule antagonists of the estrogen receptor alpha (ER-alpha) signaling pathway using the BG1 cell line in the presence of 0.1 nM 17-beta-estradiol (AID 1259244); conditions: VM7Luc4E2 (BG1) ERE-luciferase, antagonist mode, 0.1 nM E2, 22 h; series mostly up to 92.4 µM; also: nearly all actives have a fitted effect of over 50% in size
# Chain of UniProt P03372 (P03372 whole entry, looked up): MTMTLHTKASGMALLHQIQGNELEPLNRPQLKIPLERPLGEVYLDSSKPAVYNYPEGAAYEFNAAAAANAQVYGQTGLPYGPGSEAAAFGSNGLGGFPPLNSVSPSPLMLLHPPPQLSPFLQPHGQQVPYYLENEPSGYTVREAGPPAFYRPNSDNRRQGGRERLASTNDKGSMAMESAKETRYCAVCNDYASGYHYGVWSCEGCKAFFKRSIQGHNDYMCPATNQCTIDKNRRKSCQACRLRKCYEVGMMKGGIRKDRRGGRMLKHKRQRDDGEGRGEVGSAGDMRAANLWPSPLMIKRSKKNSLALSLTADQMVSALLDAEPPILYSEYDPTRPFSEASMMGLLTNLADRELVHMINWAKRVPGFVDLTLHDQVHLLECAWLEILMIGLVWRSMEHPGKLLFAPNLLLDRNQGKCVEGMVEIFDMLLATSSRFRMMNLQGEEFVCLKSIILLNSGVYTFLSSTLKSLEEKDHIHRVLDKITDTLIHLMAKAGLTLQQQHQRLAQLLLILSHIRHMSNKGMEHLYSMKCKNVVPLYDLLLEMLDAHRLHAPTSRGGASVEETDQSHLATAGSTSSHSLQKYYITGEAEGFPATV
# How it was run: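 VM7Luc4E2; 4xERE-luciferase; 0.1 nM E2 final; 22 h co-incubation, 37C; ONE-Glo luminescence after 30 min at room temperature.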
# [2] = qHTS assay to identify small molecule HDAC inhibitors (AID 1259364); conditions: HCT-116 HDAC-Glo I/II luminescence, 2 h; series mostly up to 42.5 µM;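 also: wild-type HCT-116 cells with endogenous class I/II HDAC activity; nearly all actives have a fitted effect of over 45% in size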
# How it was run: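 Relative class I and II HDAC activity is taken from the luminogenic signal in HCT-116 cells, with compound exposure 2 hr and reagent development 30 min at room temperature.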
# [3] = target: Androgen receptor (Homo sapiens) (UniProt P10275); assay: qHTS assay to identify small molecule antagonists of the androgen receptor (AR) signaling pathway using the MDA cell line in the presence of 0.5 nM R1881 (AID 1259243); conditions: MDA-kb2 MMTV-luciferase, R1881 0.5 nM, 16 h; series mostly up to 92.4 µM; also: nearly all actives have a fitted effect of over 50% in size
# Chain of UniProt P10275 (P10275 whole entry, looked up): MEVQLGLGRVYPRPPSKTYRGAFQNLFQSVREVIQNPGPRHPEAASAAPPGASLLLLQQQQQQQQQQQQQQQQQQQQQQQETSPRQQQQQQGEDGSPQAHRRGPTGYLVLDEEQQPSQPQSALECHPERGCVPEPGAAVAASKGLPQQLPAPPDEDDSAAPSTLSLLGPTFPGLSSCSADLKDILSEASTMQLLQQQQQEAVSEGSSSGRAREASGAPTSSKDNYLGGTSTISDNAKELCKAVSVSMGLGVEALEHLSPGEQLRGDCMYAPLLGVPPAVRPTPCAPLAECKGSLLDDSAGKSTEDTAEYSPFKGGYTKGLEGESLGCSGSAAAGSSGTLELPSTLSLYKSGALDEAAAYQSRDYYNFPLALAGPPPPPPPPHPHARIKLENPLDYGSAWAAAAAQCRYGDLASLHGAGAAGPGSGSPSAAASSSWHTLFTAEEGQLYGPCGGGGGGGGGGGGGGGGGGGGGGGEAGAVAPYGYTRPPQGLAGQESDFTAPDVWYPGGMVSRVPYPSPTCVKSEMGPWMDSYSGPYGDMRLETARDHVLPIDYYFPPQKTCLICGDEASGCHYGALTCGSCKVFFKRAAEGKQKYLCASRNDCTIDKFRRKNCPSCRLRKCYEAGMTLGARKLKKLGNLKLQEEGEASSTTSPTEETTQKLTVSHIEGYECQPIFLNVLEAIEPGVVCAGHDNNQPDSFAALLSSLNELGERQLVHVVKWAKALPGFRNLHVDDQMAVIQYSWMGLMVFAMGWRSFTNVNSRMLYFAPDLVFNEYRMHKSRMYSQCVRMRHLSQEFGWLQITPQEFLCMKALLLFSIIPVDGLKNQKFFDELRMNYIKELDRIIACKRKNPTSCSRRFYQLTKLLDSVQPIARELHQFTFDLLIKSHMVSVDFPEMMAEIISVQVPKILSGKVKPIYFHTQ
# How it was run: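 We exposed MDA-kb2 cells to compounds under 0.5 nM R1881 stimulation for 16 hr at 37C and quantified MMTV-driven luciferase by luminescence.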
# [4] = qHTS assay to identify small molecule antagonists of the sonic hedgehog signaling (Shh) pathway - cell viability counter screen (AID 1259367); conditions: NIH/3T3 Gli1-Luc viability, CellTiter-Fluor, 24 h; series mostly up to 92.4 µM; also: nearly all actives have a fitted effect of over 55% in size
# How it was run: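 NIH/3T3-derived Gli1-Luc reporter cells, 2,000/well, plated 4 hr before compound addition, then stimulated with conditioned medium for 24 hr at 37C. Viability measured in the same wells by CellTiter-Fluor fluorescence, reagent added at 23 hr for 1 hr.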
# [5] = qHTS assay to identify small molecule antagonists of the sonic hedgehog signaling (Shh) pathway (AID 1259369; calls by dose curve; also: nearly all actives have a fitted effect of over 45% in size); conditions: NIH/3T3 Gli1-Luc reporter, Shh antagonist, luminescence 24 h; series mostly up to 92.4 µM
# How it was run: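 Conditioned medium drives Shh signalling in 3T3Gli1-Luc cells; compounds in DMSO co-applied, 24hr at 37 C, then luciferase luminescence.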
# [6] = qHTS assay to identify small molecule phospholipidosis (PLD) inducers (AID 1259344; active = well fitted curve in the direction sought with a large enough effect; inconclusive = small, poorly fitted or top-dose-only effect, or another doubt; inactive = no such curve, though single readings can be large; an effect the other way counts as inactive or inconclusive); conditions: HepG2 phospholipidosis, LipidTOX Red imaging, 24 h; series mostly up to 38.3 µM
# How it was run: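 HepG2 cells, 900/well, treated with compound plus LipidTOX Red for 24 h at 37 C; amiodarone positive and DMSO negative controls. Fixed with paraformaldehyde/Hoechst, then high-content imaging scored LipidTOX pit count and integrated intensity per well and per cell.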
# [7] = qHTS assay to identify small molecule agonists of the sonic hedgehog signaling (Shh) pathway - cell viability counter screen (AID 1259366); conditions: NIH/3T3 Gli1-Luc viability, CellTiter-Fluor, 24 h; series mostly up to 92.4 µM; also: nearly all actives have a fitted effect of over 50% in size
# How it was run: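 After a 4hr attachment at 37C, NIH/3T3 cells bearing an integrated Gli1-driven luciferase reporter were dosed with compounds. Treatment lasted 24hr, with the final hour including CellTiter-Fluor for a fluorescence viability measurement.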
# [8] = qHTS assay to identify small molecule agonists of the sonic hedgehog signaling (Shh) pathway (AID 1259368; calls by dose curve; also: nearly all actives have a fitted effect of over 15% in size); conditions: NIH/3T3 Gli1-Luc reporter, luciferase, 24 h; series mostly up to 92.4 µM
# How it was run: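 Mouse fibroblast (NIH/3T3) reporter cells with stably integrated Gli1-Luc were treated 24 hr with compound; firefly luciferase luminescence served as the read-out.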
# Potency is read from the fitted curve at half-maximal effect; tags tell the direction and shape of the fitted curve.
smiles,measurement,setting,value
O=S(=O)(Oc1ccc(Cl)cc1Cl)c1ccccc1,Potency,[1],"inconclusive: 78.3 µM [inhibitor, single point]"
same,Potency,[2],inconclusive: 34.4 µM [inhibitor]
CCOc1ccc2c(c1)C(C)=CC(C)(C)N2,Potency,[3],"inconclusive: 24.2 µM [inhibitor, partial curve] and inconclusive: 30.6 µM [inhibitor, full curve]"
same,Potency,[4],"inconclusive: 68.6 µM [cytotoxic, single point]"
same,Potency,[5],"inconclusive: 54.2 µM [inhibitor, partial curve] and inconclusive: 61.1 µM [inhibitor, partial curve, poor fit]"
Brc1cc(Br)c(Oc2cc(Br)c(Br)cc2Br)cc1Br,Potency,[1],"inconclusive: 29.9 µM [inhibitor, single point]"
CN1C[C@H](C(=O)N[C@]2(C)O[C@@]3(O)[C@@H]4CCCN4C(=O)[C@H](Cc4ccccc4)N3C2=O)C[C@@H]2c3cccc4[nH]cc(c34)C[C@H]21,Potency,[1],"inconclusive: 29.8 µM [inhibitor, single point]"
same,Potency,[6],"inconclusive: 11.2 µM [activator, single point]"
same,Potency,[7],"inconclusive: 13.3 µM [cytotoxic, full curve]"
NCCO,Potency,[1],"inconclusive: 68.6 µM [inhibitor, single point]"
same,Potency,[7],"inactive and inconclusive: 68.6 µM [cytotoxic, single point]"
same,Potency,[4],active: 43.3 µM
CCC1(CO)COCOC1,Potency,[1],inactive
CCCCC[C@H](O)/C=C/[C@H]1[C@H](O)CC(=O)[C@@H]1C/C=C\CCCC(=O)O,Potency,[3],"inconclusive: 0.0067 µM [inhibitor, full curve]"
same,Potency,[7],"inconclusive: 0.211 µM [rising, full curve, poor fit]"
same,Potency,[8],active: 10.6 µM
CC(=O)NC1(c2cccc(F)c2)CCN(CC[C@@]2(c3ccc(Cl)c(Cl)c3)CN(c3ccccc3)C(=O)CO2)CC1,Potency,[1],inconclusive: 54.6 µM [inhibitor]
same,Potency,[4],"inconclusive: 21.7 µM [cytotoxic, partial curve]"
CC[C@H](C)COC(=O)/C=C/c1ccc(N=Cc2ccc(OC)cc2)cc1,Potency,[1],"inconclusive: 76.8 µM [inhibitor, single point]"
same,Potency,[2],"inconclusive: 15.3 µM [inhibitor, full curve]"
c1cc(N(CC2CO2)CC2CO2)ccc1OCC1CO1 (stereo not given),Potency,[1],"inconclusive: 68.7 µM [inhibitor, single point]"
same,Potency,[7],"inconclusive: 54.5 µM [cytotoxic, partial curve] and active: 61.1 µM"
Cc1cccc(C(=O)O)c1,Potency,[3],"inconclusive: 6.78 µM [inhibitor, single point]"
same,Potency,[7],active: 13.5 µM
same,Potency,[4],active: 3.03 µM
same,Potency,[5],active: 0.381 µM
COC(=O)Nc1nc2ccc(S(=O)c3ccccc3)cc2[nH]1 (stereo not given),Potency,[1],"inconclusive: 21.7 µM [inhibitor, partial curve]"
same,Potency,[5],inconclusive: 15.3 µM [inhibitor]
NC(=Nc1ccccc1)Nc1ccccc1,Potency,[1],"inconclusive: 29.8 µM [inhibitor, single point]"
same,Potency,[2],active: 0.686 µM
same,Potency,[8],"inconclusive: 27.3 µM [activator, partial curve]"
same,Potency,[5],"inconclusive: 10.6 µM [inhibitor, partial curve]"
O=C(CCCN1CC=C(n2c(=O)[nH]c3ccccc32)CC1)c1ccc(F)cc1,Potency,[1],inconclusive: 33.5 µM [inhibitor]
CCCCCCCCS(=O)C(C)Cc1ccc2c(c1)OCO2 (stereo not given),Potency,[3],"inconclusive: 69.9 µM [inhibitor, single point]"
same,Potency,[1],"inconclusive: 62.3 µM [inhibitor, partial curve]"
same,Potency,[7],"inconclusive: 69.9 µM [cytotoxic, single point]"
same,Potency,[4],"inconclusive: 55.5 µM [cytotoxic, partial curve]"
CN1CCCC(n2nc(Cc3ccc(Cl)cc3)c3ccccc3c2=O)CC1 (stereo not given),Potency,[1],"inconclusive: 29.8 µM [inhibitor, single point]"
CC(C)(O)c1ccc(CNC(=O)c2cccnc2Oc2ccc3nonc3c2)cc1,Potency,[1],"inconclusive: 61.1 µM [inhibitor, partial curve]"
same,Potency,[7],"inconclusive: 68.6 µM [cytotoxic, partial curve, poor fit]"
